The values that follow come from ChEMBL document CHEMBL4888484, “Replenishing the malaria drug discovery pipeline: Screening and hit evaluation of the MMV Hit Generation Library 1 (HGL1) against asexual blood stage Plasmodium falciparum ,using a nano luciferase reporter read-out” (2022).

Screen size: about 150,000 compounds; about 540 (0.36%) showed an effect of 50% or more. The list shows a part of the results.

The experiment relates to Plasmodium falciparum. The experiment is described as follows: Primary screen in NF54 nanoGlo assay, in single point, at 2uM, 72h; a lower Z score goes with more inhibition. The format is functional, Erythrocyte. The note with it: timepoint 72 hour.
For the molecule `Cc1ccc(C(=O)N2CCC(CCn3c(C)cnc3C3CC3)CC2)cn1`, the “% Inhibition” value is on record as -14% and the Z score is recorded as 1.85.

Take `COCc1ncc(C(=O)N2CCC[C@@H]2CCc2ccccn2)s1`: the “% Inhibition” value is given as -7% and the Z score worked out at 1.2.

For the molecule `COc1ccc(C2=NO[C@](CC(=O)Nc3ccccc3F)(C(=O)O)C2)cc1`, the “% Inhibition” value is -29% and the Z score came out at 3.35.

As for `CC1=C(C(=O)c2ccccc2)[C@@](NC(=O)c2cccc(C(F)(F)F)c2)(C(F)(F)F)C(=O)N1CC1CCCCC1`, the “% Inhibition” value is recorded as -6% and the Z score was 0.68.

Regarding `Cc1nnc(-c2cc(C(C)C)n(-c3cccc(C(=O)N[C@H]4CCCc5ccccc54)c3)n2)o1`, the “% Inhibition” value was found to be 3% and the Z score is recorded as -0.49.

Take `CN(C)c1ncc(CNC2CCC(C)(O)CC2)n1C` (stereo unspecified): the “% Inhibition” value is reported as 5% and the Z score was -0.52.

Regarding `O=C(c1ccc2cc[nH]c2c1)N1CCC(F)(F)CC1`, the “% Inhibition” value was determined as 1% and the Z score was -0.2.

Turning to `Cc1cccc(C(=O)NCCS(=O)(=O)C(C)(C)C)n1`, the “% Inhibition” value is on record as -8% and the Z score worked out at 1.11.

As for `Cc1ccc(NC(=O)N2CC[C@@]3(C2)C(=O)N(C)c2ccccc23)cc1`, the “% Inhibition” value stood at 1% and the Z score was -0.19.

In the case of `COc1cccc(CN2CC3(CCN(C(=O)Cn4cccn4)CC3)CC2=O)c1`, the “% Inhibition” value is given as -12% and the Z score is 1.89.

With `Cc1ccc(-n2cc(NC(=O)c3cc(C)no3)cn2)c(C)c1`, the “% Inhibition” value is -5% and the Z score amounted to 0.56.

On to `Cc1ccc(CNS(=O)(=O)c2c(C)sc(C)c2-c2cc(C(F)(F)F)on2)cc1`, for which the “% Inhibition” value stood at 2% and the Z score is reported as -0.3.

In the case of `Cc1ccc(N2CCC([C@H](C)N3CCN(C)CC3)CC2)nn1`, the “% Inhibition” value turned out to be 8% and the Z score is -1.12.

As to `NC(=O)Cc1nc(CN2CC(=O)NC2=O)n(-c2cccc3c2CCC3)n1`, the “% Inhibition” value is recorded as -7% and the Z score is reported as 1.05.

Regarding `Cc1ccc(CN2CCCn3nc(C(=O)NCCC(=O)NCCC(C)C)cc3C2=O)cc1`, the “% Inhibition” value was -17% and the Z score is 2.52.

For the molecule `Cn1nncc1CC(=O)N1CCc2cc(F)c(F)cc21`, the “% Inhibition” value is listed as -16% and the Z score turned out to be 2.14.

For `O=C(N[C@H]1CCN(C(=O)OCc2ccccc2)C1)C1CCOCC1`, the “% Inhibition” value is listed as -2% and the Z score was 0.43.

`O=C(Nc1cccc(-c2ccsc2)c1)N1CCCC1`: the “% Inhibition” value is listed as -5% and the Z score is 0.39.

With `CC(C(=O)Nc1cn(C2CCOCC2)nc1C)=C1CCCC1`, the “% Inhibition” value is on record as -5% and the Z score was found to be 0.8.

In the case of `Cn1nc(-c2cncnc2)nc1N1CCOCC1`, the “% Inhibition” value is on record as -9% and the Z score stood at 1.09.

Take `COc1ccc([C@@H]2CC(=O)Nc3ncnn32)cc1`: the “% Inhibition” value is given as 33% and the Z score was -3.76.

Regarding `C[C@H](Nc1cccc2c1CCCC2)C(=O)N1CCCC1`, the “% Inhibition” value is listed as -2% and the Z score was 0.31.

Consider `Cc1ccc2oc([C@H]3CCN(C(C)C)C3)nc2c1`, for which the “% Inhibition” value is -3% and the Z score is reported as 0.41.
